In article PMC10746786 (2023):

B1: FLAG-tagged EIF4G2 WT [human] / EIF2S2 [human (endogenous in HEK293T)] (parent complex)
chain 1: MESAIAEGGASRFSASSGGGGSRGAPQHYPKTAGNSEFLGKTPGQNAQKWIPARSTRRDDNSAANNSANEKERHDAIFRKVRGILNKLTPEKFDKLCLELLNVGVESKLILKGVILLIVDKALEEPKYSSLYAQLCLRLAEDAPNFDGPAAEGQPGQKQSTTFRRLLISKLQDEFENRTRNVDVYDKRENPLLPEEEEQRAIAKIKMLGNIKFIGELGKLDLIHESILHKCIKTLLEKKKRVQLKDMGEDLECLCQIMRTVGPRLDHERAKSLMDQYFARMCSLMLSKELPARIRFLLQDTVELREHHWVPRKAFLDNGPKTINQIRQDAVKDLGVFIPAPMAQGMRSDFFLEGPFMPPRMKMDRDPLGGLADMFGQMPGSGIGTGPGVIQDRFSPTMGRHRSNQLFNGHGGHIMPPTQSQFGEMGGKFMKSQGLSQLYHNQSQGLLSQLQGQSKDMPPRFSKKGQLNADEISLRPAQSFLMNKNQVPKLQPQITMIPPSAQPPRTQTPPLGQTPQLGLKTNPPLIQEKPAKTSKKPPPSKEELLKLTETVVTEYLNSGNANEAVNGVREMRAPKHFLPEMLSKVIILSLDRSDEDKEKASSLISLLKQEGIATSDNFMQAFLNVLDQCPKLEVDIPLVKSYLAQFAARAIISELVSISELAQPLESGTHFPLFLLCLQQLAKLQDREWLTELFQQSKVNMQKMLPEIDQNKDRMLEILEGKGLSFLFPLLKLEKELLKQIKLDPSPQTIYKWIKDNISPKLHVDKGFVNILMTSFLQYISSEVNPPSDETDSSSAPSKEQLEQEKQLLLSFKPVMQKFLHDHVDLQVSALYALQVHCYNSNFPKGMLLRFFVHFYDMEIIEEEAFLAWKEDITQEFPGKGKALFQVNQWLTWLETAEEEESEEEAD
chain 2: not shown

Variants of: B1
Test: co-immunoprecipitation followed by mass spectrometry; FLAG-tagged EIF4G2 transfected into HEK293T cells; corrected for EIF4G2 levels in IP; read off a plot

ratio to parent	Variant
~1.5	chain 1 R178Q
